Screen size: about 310,000 compounds; about 14,000 (4.5%) showed an effect of 50% or more. Effects have a minus sign here. Some of the results follow.
target: human ether-à-go-go-related gene (hERG) potassium channel (human, UniProt Q12809); assay: primary screen, population patch clamp on CHO cells stably expressing hERG
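Also: peak tail current of the secondary pulse compared with the same well before compound.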

human ether-à-go-go-related gene (hERG) potassium channel, sequence (Q12809 whole entry, looked up): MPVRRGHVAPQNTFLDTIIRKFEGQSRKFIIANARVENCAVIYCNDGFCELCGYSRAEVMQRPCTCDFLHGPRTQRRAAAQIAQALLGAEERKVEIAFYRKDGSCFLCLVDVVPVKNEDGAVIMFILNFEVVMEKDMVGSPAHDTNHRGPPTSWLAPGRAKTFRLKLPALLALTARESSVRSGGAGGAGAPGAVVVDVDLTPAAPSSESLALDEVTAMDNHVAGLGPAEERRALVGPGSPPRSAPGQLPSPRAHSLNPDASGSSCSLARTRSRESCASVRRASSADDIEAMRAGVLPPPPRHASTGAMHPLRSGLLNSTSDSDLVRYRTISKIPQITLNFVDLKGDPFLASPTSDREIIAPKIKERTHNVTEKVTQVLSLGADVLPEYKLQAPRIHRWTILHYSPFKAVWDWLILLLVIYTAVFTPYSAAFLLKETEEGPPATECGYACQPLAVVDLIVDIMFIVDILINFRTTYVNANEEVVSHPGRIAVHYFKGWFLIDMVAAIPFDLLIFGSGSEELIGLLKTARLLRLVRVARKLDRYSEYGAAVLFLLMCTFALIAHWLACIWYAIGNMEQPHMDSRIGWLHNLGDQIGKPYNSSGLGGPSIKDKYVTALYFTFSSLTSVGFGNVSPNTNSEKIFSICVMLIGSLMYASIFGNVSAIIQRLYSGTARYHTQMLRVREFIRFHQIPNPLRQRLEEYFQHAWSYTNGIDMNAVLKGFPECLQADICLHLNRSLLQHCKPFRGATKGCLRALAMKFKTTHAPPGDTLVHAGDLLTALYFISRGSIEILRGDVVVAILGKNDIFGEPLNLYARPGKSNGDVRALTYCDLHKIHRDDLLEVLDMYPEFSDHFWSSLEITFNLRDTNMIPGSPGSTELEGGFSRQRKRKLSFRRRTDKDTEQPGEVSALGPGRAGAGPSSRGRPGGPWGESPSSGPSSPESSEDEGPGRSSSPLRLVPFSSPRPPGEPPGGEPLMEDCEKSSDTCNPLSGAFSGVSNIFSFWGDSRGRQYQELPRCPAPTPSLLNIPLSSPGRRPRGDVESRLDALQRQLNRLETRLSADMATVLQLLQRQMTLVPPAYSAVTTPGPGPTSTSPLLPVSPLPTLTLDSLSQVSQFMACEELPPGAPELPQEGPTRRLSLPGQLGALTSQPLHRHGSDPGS

Row | SMILES | hERG current change (%, negative = inhibition) at 10uM
1 | Cc1ccc(/C=N/NC(=O)Cn2cnc3ccccc32)cc1 | 14.4%
2 | CCC(C)NS(=O)(=O)c1cccs1 (stereo not drawn) | 7.86%
3 | COc1ccc(S(=O)(=O)N2CCC(NC(=O)c3cccnc3)CC2)cc1 | -64.7%
4 | C/C(=N/NS(=O)(=O)c1ccc(C)cc1C)c1ccc2c(c1)OCO2 | -2.58%
5 | O=C(COC(=O)CC1CCCC1)Nc1ccccc1[N+](=O)[O-] | 4%
6 | CC1CN/C(=C\C(=O)c2ccc(Cl)cc2)C(=O)N1 (stereo not drawn) | -17.8%
7 | Cc1ccnc2nc(C(=O)Nc3ccc4c(c3)OCO4)nn12 | -2.98%
8 | O=C(CN1C(=O)NC2(CCCC2)C1=O)Oc1ccc2ccc(=O)oc2c1 | 7.71%
9 | CCOC(=O)C1CCN(C(=O)N2CCOCC2)CC1 | 0.666%
10 | COc1cc(C(C[N+](=O)[O-])c2c(C)cc3ccccn23)ccc1O (stereo not drawn) | 6.21%
11 | COc1cc(NC(=O)COC(=O)C2CC2)c(C)cc1[N+](=O)[O-] | 1.13%
12 | CN(C)P(=O)(CCl)Nc1ccccc1 (stereo not drawn) | 12.9%
13 | COC(=O)CSc1nnc(-c2cccnc2)n1-c1cccc(OC)c1 | 0.897%
14 | Cc1ccc(N2C(=O)C3C4C=CC(C4)C3C2=O)cc1 (stereo not drawn) | 3.12%
15 | CCc1ccc(S(=O)(=O)N2CCN(c3ccccc3OC)CC2)cc1 | 6.8%
16 | COC(=O)C1=C(C(=O)OC)[C@@H]2N(Cc3ccccc3)c3ccccc3[C@@]23C[C@@H](CO)N(C(=O)NC2CCCC2)C3=N1 | -9.18%
17 | O=C(NCc1ccccc1)C1CCN(S(=O)(=O)N2CCCCCC2)CC1 | -11%
18 | N#CCCc1cccc(CCC#N)c1 | 3.45%
19 | Cc1ccc2nc(N(CCCN(C)C)C(=O)c3ccc(S(=O)(=O)N4CCc5ccccc5C4)cc3)sc2c1.Cl | -25.3%
20 | O=C(Cn1cnc2ccccc2c1=O)OCCCCN1C(=O)c2ccccc2C1=O | 0.306%
21 | Cc1nn(C)cc1S(=O)(=O)N1CCCC(C(=O)O)C1 (stereo not drawn) | 17.4%
22 | CCOc1cc(/C=C2\C(=O)N(CCC#N)N=C2C)ccc1OCC(N)=O | 37%
23 | Cc1ccccc1NC(=O)c1cc(C(=O)c2cc(Cl)ccc2O)cn(-c2ccccc2C)c1=O | -4.89%

Row | SMILES | hERG current change (%, negative = inhibition) at 10uM
24 | c1ccc(-c2nn3cnnc3c3ccccc23)cc1 | 2.22%
25 | O=c1cnnc(N/N=C/C2CC=CCC2)[nH]1 (stereo not drawn) | -9.67%
26 | CCOC(=O)C1CCCN(Cc2nc(N)nc(Nc3ccc(OC)cc3)n2)C1 (stereo not drawn) | -75.6%
27 | Cc1ccc(/C=C(\C#N)C(=O)Nc2cccc3ncccc23)o1.Cl | 14.1%
28 | CC(=NCc1ccco1)c1c(O)n(Cc2ccccc2)c(=O)[nH]c1=O | -7.99%
29 | CCOc1ccccc1NC(=O)CSc1ncnc2c1oc1ccccc12 | -1.63%
30 | Cc1ccc(C(=O)c2ccccc2C(=O)OCC(=O)NCCc2ccc(Cl)cc2Cl)cc1 | -9.96%
31 | FC(F)(F)c1ccc(Cl)c(NC(=S)NC2CC2)c1 | 5.6%
32 | Cc1cccc(NC(=O)CSc2nnc(C)c(=O)n2N)c1 | 13.1%
33 | CC(C)C(=O)N1CCN(c2ccc(NC(=O)c3ccc(Br)o3)cc2)CC1 | -0.0806%
34 | CCOC(=O)Cc1csc(Nc2ccc(Cl)cc2)n1 | 14.9%
35 | COc1cc(NC(=O)Cn2nc(-c3ccc(F)cc3)ccc2=O)ccc1-n1cnnn1 | 0.775%
36 | Cc1ccc(SCc2cn3cc(Cl)ccc3n2)cc1 | -28.3%
37 | O=C1CCCc2c1nc(-c1ccc([N+](=O)[O-])cc1)n2O | 14%
38 | COc1ccc(NC(=O)NNS(=O)(=O)c2ccc(OC)c(OC)c2)c(OC)c1 | 2.16%
39 | O=C(COc1ccccc1[N+](=O)[O-])NC1CC1 | -4.45%
40 | O=[N+]([O-])c1ccccc1NCc1c(O)ccc2ccccc12 | 17.9%
41 | Nc1nc(NCc2cccs2)nn1-c1ccccc1 | -2.03%
42 | O=C(C(=O)N1CCCc2ccccc21)N1CCCc2ccccc21 | -25.5%
43 | CCNc1cc2n(c(=O)n1)CCc1cc(OC)c(OC)cc1-2 | -19.5%
44 | OCC[C@@H]1C[C@H](O)[C@@H](O)[C@]2(OCc3ccccc32)O1 | 10%
45 | CC1CCN(CCNC(=O)c2ccc(NC(=O)C3CCCO3)cc2)CC1 (stereo not drawn) | 3.07%

Source: PMC4336329 (PLoS ONE, 2015)
